Measurements reported in the antibiotic and cytotoxicity screens of Wong et al. (2023).
This is one part of the list.

Columns and labels:
[1] = system: HSkMC (human skeletal muscle cells); assay: cytotoxicity call (relative viability < 0.9); details: 10 µM
[2] = system: HepG2; assay: cytotoxicity call (relative viability < 0.9); details: 10 µM
[3] = system: S. aureus RN4220; assay: growth inhibition call (relative growth <= 0.2); details: 50 µM

SMILES | cytotoxicity call [1] | cytotoxicity call [2] | growth inhibition call [3]
O=C(C[C@@H]1CC[C@@H]2[C@H](COC[C@H](O)CN2S(=O)(=O)c2ccccc2F)O1)NCc1ccccc1Cl | inactive | inactive | inactive
COc1cc(O)c(C(=O)O)c(O)c1 | inactive | inactive | inactive
COc1ccc(S(=O)(=O)Nc2ccc3c(c2)C(=O)N([C@@H](C)CO)C[C@H](C)[C@@H](CN(C)S(C)(=O)=O)O3)cc1 | inactive | inactive | inactive
CCC(=O)N1CCC[C@H](C(=O)O)C1 | inactive | inactive | inactive
C[C@@H]1CN([C@@H](C)CO)C(=O)c2cccc(NC(=O)CCCCCC(=O)Nc3ccccc3N)c2O[C@H]1CN(C)Cc1ccc(Cl)c(Cl)c1 | inactive | inactive | inactive
Cc1ccc(S(=O)(=O)N(C)C[C@@H]2Oc3ccc(NC(=O)CCCN(C)C)cc3CC(=O)N([C@H](C)CO)C[C@@H]2C)cc1 | inactive | inactive | inactive
CNNCc1ccc(C(=O)NC(C)C)cc1 | inactive | inactive | inactive
C[C@H](CO)N1C[C@H](C)[C@@H](CN(C)Cc2ccc(Cl)c(Cl)c2)Oc2ccc(NC(=O)Nc3ccc(C(F)(F)F)cc3)cc2C1=O | active | active | inactive
COc1ccc(C)cc1S(=O)(=O)NCCO | inactive | inactive | inactive
C[C@@H]1CN([C@@H](C)CO)C(=O)c2cccc(NC(=O)c3nc4ccccc4s3)c2O[C@@H]1CN(C)Cc1ccc(Cl)c(Cl)c1 | inactive | inactive | inactive
C[C@@H]1COC(=O)[C@@H](Cc2ccc(F)cc2)CCC=CC[C@@H](CC(=O)N[C@H](CO)Cc2ccccc2)C(=O)N1 | inactive | inactive | inactive
COCC(=O)Nc1ccc2c(c1)C(=O)N(C)C[C@@H](OC)[C@H](C)CN(Cc1cccc(F)c1)[C@H](C)CO2 | inactive | inactive | inactive
NCCCS(=O)(=O)O | inactive | inactive | inactive
Cn1nccc1CNC(=O)c1ccnn1C | inactive | inactive | inactive
C[C@H](CO)N1C[C@H](C)[C@H](CN(C)Cc2ccc3c(c2)OCO3)Oc2c(NC(=O)c3ccncc3)cccc2C1=O | inactive | inactive | inactive
C[C@H]1CCCCO[C@@H](CN(C)C(=O)Nc2ccccc2)[C@@H](C)CN([C@@H](C)CO)C(=O)c2cc(NS(=O)(=O)c3ccc(Cl)cc3)ccc2O1 | inactive | inactive | inactive
C[C@@H]1CN([C@@H](C)CO)C(=O)c2cc(NC(=O)C3CCCCC3)ccc2O[C@@H](C)CCCCO[C@@H]1CN(C)C(=O)c1ccncc1 | inactive | inactive | inactive
COc1ccccc1S(=O)(=O)N(C)C[C@H]1Oc2cc(C#CCC(C)C)ccc2S(=O)(=O)N([C@@H](C)CO)C[C@@H]1C | inactive | inactive | inactive
NCCCCN | inactive | inactive | inactive
C[C@H]1CN([C@@H](C)CO)C(=O)c2cc(NC(=O)Nc3cccc4ccccc34)ccc2O[C@H]1CN(C)Cc1ccc(-c2ccccc2)cc1 | inactive | inactive | inactive
CNC(=O)C[C@@H]1CC[C@H]2[C@@H](COC[C@@H](O)CN2C(=O)Nc2cccc(OC)c2)O1 | inactive | inactive | inactive
C[C@H]1CN([C@@H](C)CO)S(=O)(=O)c2ccc(C3=CCCC3)cc2O[C@@H]1CN(C)C(=O)C1CCOCC1 | inactive | inactive | inactive
C[C@H](CO)N1C[C@H](C)[C@@H](CN(C)Cc2ccc(Cl)c(Cl)c2)Oc2c(NC(=O)c3nc4ccccc4s3)cccc2C1=O | inactive | inactive | inactive
CS(=O)(=O)N1C[C@@H](O)COC[C@H]2O[C@H](CC(=O)NCCc3ccncc3)CC[C@@H]21 | inactive | inactive | inactive
C[C@H](CO)N1C[C@H](C)[C@H](CN(C)S(=O)(=O)c2cn(C)cn2)OCc2ccccc2-c2c(n(C)c3ccccc23)C1=O | inactive | inactive | inactive
C[C@H]1CN([C@@H](C)CO)C(=O)c2cc(NC(=O)Nc3ccccc3)ccc2O[C@H]1CN(C)C(=O)Nc1ccc(C(F)(F)F)cc1 | inactive | inactive | inactive
C[C@H]1CN([C@@H](C)CO)C(=O)c2cc(NC(=O)Nc3ccc4c(c3)OCO4)ccc2O[C@H]1CN(C)C(=O)Nc1ccc(C(F)(F)F)cc1 | inactive | inactive | inactive
O=C(C[C@H]1C[C@@H]2c3cc(NS(=O)(=O)c4ccccc4)ccc3O[C@@H]2[C@@H](CO)O1)NCC(F)(F)F | inactive | inactive | inactive

SMILES | cytotoxicity call [1] | cytotoxicity call [2] | growth inhibition call [3]
C[C@@H]1CN([C@H](C)CO)S(=O)(=O)c2ccc(C#Cc3ccccc3)cc2O[C@@H]1CN(C)S(=O)(=O)c1cn(C)cn1 | inactive | inactive | inactive
O=c1c2c(c1=O)N(CCP(=O)(O)O)CCCN2 | inactive | inactive | inactive
Cc1noc(C)c1S(=O)(=O)N(C)C[C@H]1Oc2ccc(NC(=O)Cc3ccccc3)cc2CC(=O)N([C@@H](C)CO)C[C@@H]1C | inactive | inactive | inactive
C[C@@H](O)C#Cc1ccc2c(c1)O[C@@H](CN(C)C(=O)CN(C)C)[C@@H](C)CN([C@@H](C)CO)S2(=O)=O | inactive | inactive | inactive
C[C@@H]1CN([C@@H](C)CO)C(=O)c2cccc(NC(=O)C3CC3)c2O[C@H]1CN(C)Cc1ccc(-c2ccccc2)cc1 | inactive | inactive | inactive
C[C@@H]1CN([C@@H](C)CO)C(=O)c2cc(NS(=O)(=O)c3ccc(Cl)cc3)ccc2O[C@@H]1CN(C)Cc1ccc(C(=O)Nc2ccccc2N)cc1 | inactive | active | inactive
C[C@@H]1CCCCO[C@@H](CN(C)C(=O)Nc2ccccc2)[C@@H](C)CN([C@@H](C)CO)C(=O)c2cc(NC(=O)c3ccccc3)ccc2O1 | inactive | inactive | inactive
CN(C)CCCNC(=O)C[C@@H]1CC[C@@H]2[C@@H](COc3ccc(NC(=O)NC4CCCC4)cc3C(=O)N2C)O1 | inactive | inactive | inactive
C[C@H](CO)N1C[C@H](C)[C@H](CN(C)C(=O)Nc2cccc(F)c2)OCCCC[C@H](C)Oc2ccc(NC(=O)C3CCCCC3)cc2C1=O | inactive | inactive | inactive
COc1ccc(CN(C)C[C@@H]2OCCCC[C@H](C)Oc3ccc(NC(=O)NC4CCCCC4)cc3C(=O)N([C@H](C)CO)C[C@@H]2C)cc1 | inactive | inactive | inactive
C[C@@H]1CN([C@@H](C)CO)S(=O)(=O)c2ccc(C3=CCCC3)cc2O[C@H]1CN(C)S(=O)(=O)c1cn(C)cn1 | inactive | inactive | inactive
Cc1ccc(S(=O)(=O)N(C)C[C@H]2Oc3ccc(NC(=O)C4CC4)cc3C(=O)N([C@@H](C)CO)C[C@@H]2C)cc1 | inactive | inactive | inactive
COc1ccc(S(=O)(=O)Nc2ccc3c(c2)C(=O)N([C@H](C)CO)C[C@H](C)[C@@H](CN(C)C(=O)Nc2ccccc2)OCCCC[C@H](C)O3)cc1 | inactive | inactive | inactive
COC(=O)CCCCCCNC(=O)c1ccc(NCc2cn(Cc3ccc(C(=O)c4ccc(Cn5cc(CNc6ccc(C(=O)NCCCCCCC(=O)OC)cc6)nn5)cc4)cc3)nn2)cc1 | inactive | inactive | inactive
C[C@H]1CN([C@@H](C)CO)S(=O)(=O)c2ccc(C#CCN(C)C)cc2O[C@@H]1CN(C)C(=O)CN(C)C | inactive | inactive | inactive
CC(=O)NCc1c(I)c(NC(C)=O)c(I)c(C(=O)O)c1I | inactive | inactive | inactive
COc1ccc2c3c([nH]c2c1)[C@H](CO)N(C[C@]13CCN(CC1)C(=O)c1cccnc1)C(=O)c1cccnc1 | inactive | inactive | inactive
C[C@H](CO)N1C[C@H](C)[C@H](CN(C)S(=O)(=O)c2cn(C)cn2)Oc2c(NS(=O)(=O)c3ccc(Cl)cc3)cccc2C1=O | inactive | inactive | inactive
CC(=O)O[C@H]1CC(C)(C)C[C@H]2[C@]13CO[C@@]21CC[C@H]2[C@@]4(C)CC[C@H](O[C@@H]5OC[C@H](O[C@@H]6O[C@H](CO)[C@@H](O)[C@H](O)[C@H]6O[C@@H]6OC[C@@H](O[C@@H]7O[C@H](CO)[C@@H](O)[C@H](O)[C@H]7O)[C@H](O)[C@H]6O)[C@H](O)[C@H]5O[C@@H]5O[C@H](CO)[C@@H](O)[C@H](O)[C@H]5O)[C@@](C)(CO)[C@@H]4CC[C@@]2(C)[C@]1(C)C[C@H]3O | active | active | inactive
C[C@H](CO)N1C[C@H](C)[C@H](CN(C)S(=O)(=O)c2ccc(F)cc2)Oc2ccc(NS(=O)(=O)c3ccc(F)cc3)cc2CC1=O | inactive | inactive | inactive
COc1ccc(S(=O)(=O)Nc2ccc3c(c2)C(=O)N([C@H](C)CO)C[C@@H](C)[C@@H](CN(C)Cc2ccc4c(c2)OCO4)OCCCC[C@@H](C)O3)cc1 | inactive | inactive | inactive
Cc1ccc(S(=O)(=O)Nc2ccc3c(c2)CC(=O)N([C@@H](C)CO)C[C@H](C)[C@H](CN(C)S(=O)(=O)c2ccccc2)O3)cc1 | inactive | inactive | inactive
NCc1n[nH]c(=O)c2ccccc12 | inactive | inactive | inactive
COc1ccc(NC(=O)Nc2ccc3c(c2)C(=O)N([C@@H](C)CO)C[C@@H](C)[C@@H](CN(C)Cc2ccc(C(F)(F)F)cc2)O3)cc1 | inactive | active | inactive
C[C@@H]1CN([C@H](C)CO)C(=O)c2cc(NC(=O)Nc3ccc(C(F)(F)F)cc3)ccc2O[C@H]1CN(C)C(=O)Nc1ccc(F)cc1 | inactive | inactive | inactive
CC(=CC(=O)OCCCCCCCCC(=O)O)CC1OCC(CC2OC2C(C)C(C)O)C(O)C1O (stereo not given) | inactive | inactive | active
C=C(C)/C=C1/C=CC(=O)C(C)=C1 | inactive | inactive | inactive
